Results on 24 sequences are retold here after the supplement of paper PMC11417369.

± gives the standard deviation of the averaged measurements. The list shows a part of the results.

The test system of the assay is PfAP2-I AP2 domain 3 (GST-tagged). Nature of the assay: gcPBM binding intensity (ln(normalized median fluorescence intensity)); higher = stronger DNA binding. The gist of the method:
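Binding intensity is defined as the maximum Masliner-normalised natural-log median intensity across replicate spots for either probe orientation. It was measured on an Agilent 4 × 180k array of primer-extended double-stranded 36-bp intergenic genomic probes and negative controls, to which GST-tagged P. falciparum DNA-binding domains made in E. coli were applied for 1 h in 1× PBS with 1% milk, 0.2 mg/ml BSA, 0.5% salmon testes DNA and 0.03% Triton X-100. Detection was by Alexa488 anti-GST antibody and scanning at 488 nm.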
With “TATATTTAGAATACAATCTTAAAGTTGAAATAAAAT [CACACA_negctrl_site1292]”, the “gcPBM binding intensity (ln)” value worked out at 7.39 ± 0.49. With “AAAAAAAAAACATACACACACACAAATATTTATATA [CACACA_site437]”, the “gcPBM binding intensity (ln)” value was 7.59 ± 0.48. For “TTTATTATCTTATTCACACACATATATAAATATGTA [CACACA_site7369]”, the “gcPBM binding intensity (ln)” value came to 7.75 ± 0.61. Regarding “AACATAATAAAAAAACGTACATAATTTTATATACAT [XGTACX_site6602]”, the “gcPBM binding intensity (ln)” value was determined as 7.88 ± 0.21.

As for “ATATATCCAATATATATATATATATATATATATATA [CACACA_negctrl_site160]”, the “gcPBM binding intensity (ln)” value is 9.2 ± 0.67. Turning to “CTAAAAAATAGTAAAAGTACATAAATAATTTTGCTT [XGTACX_site8919]”, the “gcPBM binding intensity (ln)” value came out at 7.58 ± 0.33. With “ACAATTATTTTGTTCTTTAATGGTAGGTTCTATGTC [CACACA_negctrl_site1419]” the figure was 7.64 ± 0.52; with “TTACACATGTTTAACTGTACACATAATAGCAATATT [XGTACX_site8545]”, 8.15 ± 0.42; with “CATAAATTACTTTTTACACACTAAAATAAAATACAA [CACACA_site1135]”, 7.84 ± 0.2.

As for “AATACACGCAGACACACACACACACGCACATATATA [CACACA_site6447]”, the “gcPBM binding intensity (ln)” value is 8.26 ± 0.59. Turning to “GAAAAAAGAAATTAAACATGCATCTGCAAATTTAAA [TGCATGCA_site974]”, the “gcPBM binding intensity (ln)” value turned out to be 7.42 ± 0.74. Next, “AATAATATTTAATACACACACCAGTTCTGCAAATTT [CACACA_site7712]”: 8.13 ± 0.65; “AATAGTAAAAGATATACACACACCAAAAAATATAAT [CACACA_site5293]”: 7.96 ± 0.57; “ACATAATAAAAATAAATTCATAAGTAAATAAATAAA [TGCATGCA_negctrl_site186]”: 7.42 ± 0.59. For “TGCTACATTTTATGTACACACATATACAGATATATA [CACACA_site4646]”, the “gcPBM binding intensity (ln)” value came to 7.84 ± 0.4. As to “TGAATAAATCAAAGCACACATACACCCACATATATA [CACACA_site286]”, the “gcPBM binding intensity (ln)” value was determined as 8.46 ± 0.25. Turning to “ATACAATTTATTTTAACACACGAATGAATTGATTAT [CACACA_site4160]”, the “gcPBM binding intensity (ln)” value stood at 7.76 ± 0.63.

On to “ATACAAATATACTTTTGTACGAAGAAATATATATAT [XGTACX_site3912]”, for which the “gcPBM binding intensity (ln)” value turned out to be 8.78 ± 0.057. For the sequence “GGTTCATATCTTAACACACACATACATATTATAGAT [CACACA_site7392]”, the “gcPBM binding intensity (ln)” value is 8.32 ± 0.42. Take “TAAAGAAACTATTCAACACACGGTCTAATTATTACA [CACACA_site1064]”: the “gcPBM binding intensity (ln)” value came out at 7.44 ± 0.58. Consider “ATAAAAAAAATAAAAAGTACAAAAAAAAAAAATGGA [XGTACX_site136]”, for which the “gcPBM binding intensity (ln)” value is 8.02 ± 0.29. With “CAGGGCAGGGGGAAGGGTACACATAAAAGAAAATAA [XGTACX_site172]”, the “gcPBM binding intensity (ln)” value was 9.36 ± 0.16. As for “AAAAATAAACGACAGTGTACTAAATATTTAATTTTC [XGTACX_site3580]”, the “gcPBM binding intensity (ln)” value was found to be 7.83 ± 0.48. For “TATTCTAAAGAAATTACACACATGCAATGAAAAAAA [CACACA_site6895]”, the “gcPBM binding intensity (ln)” value amounted to 8.09 ± 0.81.
